For 34 variants, self-cleavage results are on record in the RNAGym collection of RNA variant scans (doi:10.1093/nar/gkz1192).

To fix the notation:
B1: CPEB3 Ribozyme (parent)
chain: UAACAGGGGGCCACAGCAGAAGCGUUCACGUCGCAGCCCCUGUCAGAUUCUGGUGAAUCUGCGAAUUCUGCUGUAUAUCUC

The source gives no read counts; variants with many changes may rest on few reads.

This data set covers variants of B1. Description: self-cleavage, relative activity (ratio to wild type); higher = more cleavage; in vitro, sequencing. The essentials:
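For each CPEB3 ribozyme variant, relative activity is its cleaved/total read fraction divided by the unmutated ribozyme's. Barcoded error-prone PCR libraries were transcribed by T7 RNA polymerase (5 hours, 37°C) and held in DNase I for 15 min before an EDTA stop, with cleavage occurring throughout. Template-switching reverse transcription and Illumina sequencing were used to read the RNAs. A 5-read minimum applied, and results are the mean of three batches.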
Consider UAACAGGGGGCCACAGCAGAAGAGUUCACGACGCAGCCCCUGUCAGAUUCUGGUGGAUCUGCGAAUUCUGCUGUAUAUCAC, for which the self-cleavage stood at 0.06.

Consider UAACAGGGGGCCACAGCAGAAGAGUUCACGUCGAUGCCCCUGUCAGAUUCUGGUGAAUCUGCGGAUUCUGCUGUAUAUCUC, for which the self-cleavage was 0.07. In the case of UAACAGGGGGCCACAGCAGAAGAGAUCACGUCGCAGCCCCUGUCAGAUUCUGGAGAAUCUGCGAAUUCUGCUGUAUAUCUC, the self-cleavage turned out to be 0.27.

Consider UAACAGGGGGCCACAGCAGAAGAGUUCGCGCCGCAGCCCCUGUCAGAUUCUGGUGGAUCUGCGAAUCCUGCGGUAAAUCUC, for which the self-cleavage worked out at 0.05. Turning to UAACAGGGGGCCACAGCAGAAUCGUUCACUUCGUAGCCCCUGCCAGAUUCUGGUGAAUCUGCGAACUCUGCUGUAUAUCCC, the self-cleavage was found to be 0.08. As to UAACAGGGGGCCACAGCAGAAGAGUUCACGACGCGGCCCCUGUCAGAUUCUGGUGGAUCUGCGAAUUCUGCUGUAUAUCUC, the self-cleavage was found to be 0.22. As to UAACAGGGGGCCACAGCAGAAUCGUUCACGUCGCAGCCCCUAUCAGAUUCUGGUGAAUCAGCGUAUUCAGCUGUAUAUCUC, the self-cleavage turned out to be 0.08. UAACAGGGGGCCACAGCAGAAGAGUACACGUCGCAGCACCUGUCGGACUCUGGUGUAUCUGCGAAUUCUGCUGUAUAUCUC: the self-cleavage amounted to 0.03.

With UAACAGGGGGCCACAGCAGAAUCGUUCACGUCGCAGCCCCUGCCAGUUUCUGGUGAAUCUGCGAAUUCUGCUGCAUAUCUC, the self-cleavage was 0.08. Regarding UAACAGGGGGCCACAGCAGAAGAGAUCACGUCGCAGCCCCUGUCAGAUUCUGGUGAAUCUACGAAUCCUGCAGUAUAUCAC, the self-cleavage was 0.07.

With UAACAGGGGGCCACAGCAGAAUCGUUCACUUCGCAGCCCCUGUCAGAUUCUGGUGAAUCUGCGAAUUCCGCGGUAUAUCUC, the self-cleavage was 0.06. UAACAGGGGGCCACAGCAGAAUCGUUCACGUCGCGGCCCCUGUCAGAUUCGGGUGAAUCUGAGAAUUCUGCCGUAUAUCUC: the self-cleavage came to 0.16.

Consider UAACAGGGGGCCACAGCAGAAGAGUUCACGUCGCAGCCCCUGUCGGAUUCUGGUGAACCUGCGAAUUCUGCGGUAUAUCUC, for which the self-cleavage turned out to be 0.12. Take UAACAGGGGGCCACAGCAGAAGAGUUCACGUCGCAGCCCCUGUCGGAUUCUGGUGAAUCUGCGAAUACUGCUGUAUAUCUC: the self-cleavage turned out to be 0.11. Consider UAACAGGGGGCCACAGCAGAAGAGUGCACGUCGCAGCCCCUGUCAGGUUCUGGUGAAUCUGCGAAUUCUGCAGUAUAUCCC, for which the self-cleavage was 0.11. Consider UAACAGGGGGCCACAGCAGAAUCGUUCACGUCGCUGCCCCUGUCAGAUUCUGGUGAAUCUGCGAAUUCUGCUGUGUAUCUC, for which the self-cleavage was 0.07. The figure for UAACAGGGGGCCACAGCAGAAGAGUUCACGUCGCAGCCCCUGUCGGAUUCUAGGGAAUCUGCGAAUUCUGCUGUAUAUCUC is 0.33. Take UAACAGGGGGCCACAGCAGAAUCGUUCACGACGCAGCCCCUGUCAGAUUCUGGCGAAUCUGCGAAUUCUGCUGUAUAUCUC: the self-cleavage was found to be 0.15. For UAACAGGGGGCCACAGCAGAAUCGUUCACGUCGCAGCCCCUGUCAGACUCUGGUGAAUCUGAGGAUUCUGCUGUAUAUCUC, the self-cleavage worked out at 0.14.

Consider UAACAGGGGGCCACAGCAGAAUCGUACACGUCACAGCCCCUGUCAGAUUCUGGUGAAUCUGCGAGUUCUGCUGUAUAUCUC, for which the self-cleavage turned out to be 0.12. For UAACAGGGGGCCACAGCAGAAGAGUUCACGUCGCAGCGCCUGUCAGAUUCUGGUGGAUCAGCGAAUUCUGCUGUAUAUCUC the value was 0.2. In the case of UAACAGGGGGCCACAGCAGAAGAGUCCACGUCGCAGCCCCUGACAGAUUCUGGUGAAUCUGCGAAUUCUGCCGUACAUCUC, the self-cleavage came to 0.29. Turning to UAACAGGGGGCCACAGCAGAAGAGCUCACGUCGCAGCCCCUGUCAGAUUCUGGUGAACCUGCGAAUUCUACUGUAUAUCUC, the self-cleavage was found to be 0.11. Regarding UAACAGGGGGCCACAGCAGAAGAGUUCACGUCGCAGCCCCUGUCAGAUUCUGUUGAAUCUGCGAAUUCUGCUGUACAUCUC, the self-cleavage came out at 0.16. UAACAGGGGGCCACAGCAGAAUCGUUCACGUCGCAGUCCCUGCCAGAUUCUGGUGAAUCUGCGAAUUCUGCUGUAUAUCUC: the self-cleavage stood at 0.08.

In the case of UAACAGGGGGCCACAGCAGAAGAGUUCACGUCGCAGCCCCUGUCGGAUUCUGGUGAAUCCGCGAAUACUGCUGUAUGUCUC, the self-cleavage amounted to 0.11. The figure for UAACAGGGGGCCACAGCAGAAGAGCUCACGUCGCAGCCCCUGUCAGAUUCUGGUGAAUCUGCGAACUCUGCUGUAUAUCUC is 0.13.

For UAACAGGGGGCCACAGCAGAAUCGUUCACGUCGCAGCCCCUGUCAGAUUCAGGUGAAUCUGCGAACUCUGCUGUAUAUCUC, the self-cleavage is 0.47.

As for UAACAGGGGGCCACAGCAGAAGAGUUCACGUCGCAGCCCCUGUCAGAUUCUGGUGGAUCUGCGAAUUCUGCUGUAUAUCCC, the self-cleavage turned out to be 0.12. As to UAACAGGGGGCCACAGCAGAAGAGUUCACGUCGCAGCCCCUGUCGGAUUCUGGUGAAUCUGCGAAUUCUGCUGUUUAUCAC, the self-cleavage was 0.06.

For UAACAGGGGGCCACAGCAGAAGAGUUCACGACGCAGCCCCUGACAGAUUCUGGUGAAUCUGCGAAUUCUGCUGAAUAUCCC, the self-cleavage came out at 0.34. For the variant UAACAGGGGGCCACAGCAGAAGAGUACACGUCGCAGCCCCCGUCUGAUUCUGGUGAAUCUGCGAAUUCUGCUGUACAUCUC, the self-cleavage worked out at 0.11. Turning to UAACAGGGGGCCACAGCAGAAGAGUUCAAGUCGCAGCCCCUGUCAGAUUCUGGAGAAUCUGCGAUUUCUGCUGUAUAUCUC, the self-cleavage came out at 0.05.

In the case of UAACAGGGGGCCACAGCAGAAGAGUUCGCGCCGCAGCCCCUGUCAGAUUCUGGUGGAUCUGCGAAUCCUGCUGUAUACCUC, the self-cleavage was 0.09.
